Data reported in PubChem BioAssay AID662 (National Center for Advancing Translational Sciences (NCATS), 2007).
The whole screen tested about 71,000 compounds, of which about 1,800 (2.5%) were called active. Inconclusive means that the source gave no clear call. Such entries were picked first, then a sample of the others. Calls come from the whole dose curve; as a rule, active = well fitted activation curve with a large enough effect in the signal ratio, with a control signal flat (not every such curve was filed as active); inconclusive = small, poorly fitted or top-dose-only effect, or effect the other way, or a change in a side signal; inactive = flat fitted curve, though single readings scatter; the % refers to the signal ratio. Potencies of inconclusive entries are doubtful fits and often do not repeat.

assay: Cell signaling CRE-BLA (Fsk stim); settings: CHO CRE-bla reporter (cAMP response element driving beta-lactamase), forskolin EC10, beta-lactamase ratio; activity change, negative = inhibition: at 38.2 µM (top of the series) unless noted; for activity change, negative = inhibition: % of control where 0% means no effect
Outline: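 Cells were plated overnight at 37 °C, exposed to compound titrations plus EC10 NKH 477 for 3 h, then given CCF4 dye for 2 h at room temperature. Blue/green (460/530 nm) ratio was converted to %Activity and AC50 values calculated.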
Potency is the fitted concentration of half-maximal effect; tags give direction and shape of the fitted curve.

Structure (SMILES)	activity change, negative = inhibition	Potency
CCOC(=O)Nc1ccc(C(=O)NCC2CCCO2)cc1 (centres undefined)	inactive	–
Cn1c(=O)c(CCc2ccccc2)nc2cnc(Oc3ccccc3)nc21	inconclusive: 20.2%	–
CC(=O)Nc1cccc(Oc2nc(C)cc(C)c2C#N)c1	inactive	–
COc1ccc(-n2c(=O)[nH]cc(C(=O)Nc3ccc(NC(C)=O)cc3)c2=O)cc1	–	inconclusive: 31.6 µM [falling, single point]
CCn1cc(C(=O)NCCN(C)CCc2ccccc2)c(=O)c2cc(S(=O)(=O)N(C)C)ccc21	inconclusive: 0.112%	–
CCOc1cc(CN2CCN(c3ccc(C(C)=O)cc3)CC2)ccc1OC	–	inconclusive: 1 µM [falling, single point]
CCn1c2ccccc2c2nnc(SCC(=O)Nc3ncccn3)nc21	–	active: 10 µM
C/C=C/Cn1c(SCCCc2ccccc2)nc2c1c(=O)[nH]c(=O)n2C	–	inconclusive: 3.16 µM [rising, partial curve]
CC1=C(/C=C/C(C)=C/C=C/C(C)=C/C=O)C(C)(C)CCC1	inconclusive: -23.6%	–
CCOc1ccc(N2CC(C(=O)NCc3ccc(F)cc3)CC2=O)cc1 (centres undefined)	inconclusive: -13.2%	–
Clc1ccc2c(NCCNc3ccnc4cc(Cl)ccc34)ccnc2c1	inactive: -9.22% [at 7.6 µM]	–
CC(C)(C)N1C(=O)c2ccc(C(=O)NCc3ccco3)cc2C1=O	inactive	–
Cc1ccc(-n2nnc3c(=O)n(Cc4cccc(C)c4)cnc32)cc1	–	inconclusive: 12.6 µM [rising, partial curve]
Cc1cc2ccccc2n1CCNC(=O)C(C)C	–	active: 12.6 µM
Nc1ccc2oc(=O)c3ccccc3c2c1	inactive	–
OCCSCc1ccccc1	inactive: 3.78% [at 7.6 µM]	–
CCc1nnc(NC(=O)C2Cc3ccccc3CN2S(=O)(=O)c2cccs2)s1 (centres undefined)	inconclusive: -27.3%	–
COC(=O)c1cc(C(=O)OC)cc(-n2c(C)cc(C(=O)CC#N)c2C)c1	–	inconclusive: 10 µM [rising, single point]
c1cnc(Oc2ccc(-c3nnco3)cc2)cn1	inconclusive: -11.9%	–
CC(Nc1ccc(Br)cn1)c1cc(Cl)ccc1O (centres undefined)	–	inconclusive: 25.1 µM [rising, single point]
Cn1cccc1-c1nc2ccc(NC(=O)c3ccco3)cc2[nH]1	–	inconclusive: 10 µM [rising, single point]
COc1ccc(NS(=O)(=O)c2ccc3oc(Nc4ccc5c(c4)OCCO5)nc3c2)cc1	–	inconclusive: 0.158 µM [falling, full curve]
CCC(=O)n1nc(-c2ccc(OC)cc2)nc1N	inconclusive: 5.45%	–
O=C(CSc1nnc(-c2cnccn2)n1Cc1ccco1)c1ccc2ccccc2c1	–	inconclusive: 25.1 µM [rising, single point]
Cc1cc(NC(=O)CSc2nc(C(C)C)nc3sc(C)c(C)c23)no1	–	inconclusive: 10 µM [rising, partial curve]
COc1ccc(S(=O)(=O)CCC(=O)Nc2c(C)n(C)n(-c3ccccc3)c2=O)cc1	–	inconclusive: 2.51 µM [rising, full curve]
CCOc1ccc(S(=O)(=O)N(CC(=O)O)c2ccc(C)cc2)cc1	inconclusive: -0.421%	–

Structure (SMILES)	activity change, negative = inhibition	Potency
Cc1nc2nc(-c3ccccc3)cn2nc1C	–	inconclusive: 10 µM [rising, partial curve]
O=C(COC(=O)c1ccc(Cl)c(S(=O)(=O)N2CCCC2)c1)NC1CCCC1	inactive	–
C#C[C@@]1(O)CC[C@H]2[C@H]3CCC4=Cc5oncc5C[C@]4(C)[C@@H]3CC[C@@]21C	inactive	–
CCOC(=O)Cn1c(C)nc2ccccc21	inactive	–
CCN(CC)c1ccc(/C=N/n2c(C)cc(C)cc2=O)cc1	inconclusive: -5.53% [at 7.6 µM]	–
CCc1ccc2oc(-c3cc(N)cc(C)c3O)nc2c1	inactive	–
CCOc1ccc(-c2nnc(N)o2)cc1	inconclusive: 2.99%	–
COc1ccc(-c2nc(C#N)c(NCc3ccc(C)cc3)o2)cc1OC	–	active: 5.01 µM
C[C@H](CCC(=O)O)[C@H]1CC[C@@H]2[C@H]3CC[C@H]4C[C@@H](O)CC[C@@]4(C)[C@H]3CC[C@]21C	–	inconclusive: 12.6 µM [rising, single point]
COc1ccc(NC(=O)c2nc3nc(C)cc(C(F)F)n3n2)cc1OC	inactive	–
O=C(O)/C(=C\c1ccccc1)Cc1ccccc1	inactive: 0.708% [at 7.6 µM]	–
CCCCOC(=O)c1[nH]c2c(c1C)C(=O)CC(c1cc(OC)c(OC)c(OC)c1)C2 (centres undefined)	inactive	–
CCCOc1ccc2oc(=O)c3c(c2c1)CCCN3C(=O)CN(C)Cc1ccccc1	inconclusive: 19.3%	–
COC(=O)CSc1n[nH]c(-c2ccncc2)n1	inconclusive: -0.843%	–
COc1cccc(C2=NOC(C(=O)Nc3cc(C)nn3-c3ccccc3)C2)c1OC (centres undefined)	–	inconclusive: 3.16 µM [rising, single point]
CCN(CC)CCNC(=O)NC1CCCCC1	inconclusive: 9.29% [at 7.6 µM]	–
COc1ccccc1-c1cc(C(=O)N2CCc3ccccc3C2)no1	inconclusive: -18.2%	–
CCOc1cc(-c2noc(-c3cccnc3)n2)ccc1OC	–	inconclusive: 2.51 µM [rising, partial curve]
COc1ccc2cc3c(N)c(C(=O)NCc4ccco4)sc3nc2c1	–	active: 12.6 µM
CCOC(=O)c1ccccc1NC(=O)CN1CCC(n2nnc3cc(F)ccc32)CC1	inconclusive: 25%	–
CCc1nc2ccc(C(=O)NCc3ccco3)cc2nc1CC	–	inconclusive: 12.6 µM [rising, partial curve]
CCCCn1c(SCC(=O)OCC)nc2c1c(=O)[nH]c(=O)n2C	–	inconclusive: 10 µM [rising, partial curve]
O=C1CCN(S(=O)(=O)c2ccccc2)C2CCCCC12 (centres undefined)	inconclusive: -20.2%	–
N[C@H](Cc1cc(I)c(Oc2ccc(O)c(I)c2)c(I)c1)C(=O)O	inactive	–
COc1ccc(Nc2nc(N3CCCC3)nc3ccccc23)c(OC)c1	–	inconclusive: 10 µM [rising, partial curve]
O=c1c(-c2cccc(F)c2)nc2cncnc2n1Cc1ccccc1	inconclusive: 21.8%	–
CC1(C)OC[C@@H]2O[C@H](n3cnc4c(N)nc(Cl)nc43)[C@@H](OS(C)(=O)=O)[C@@H]2O1	inactive: 9.26% [at 7.6 µM]	–

Structure (SMILES)	activity change, negative = inhibition	Potency
CCOC(=O)c1cc2c(=O)n3ccccc3nc2n(CC(C)C)c1=NC(=O)c1ccco1	–	inconclusive: 12.6 µM [rising, partial curve]
CCc1nc(N)c(C#N)c(-c2cccn2C)c1C	–	active: 12.6 µM
COc1ccccc1NC(=O)COc1ccc(/C=N/n2cnnc2)cc1OC	–	inconclusive: 3.98 µM [rising, single point]
C=CCn1c(SCC(=O)OCc2ccccc2)nc2c1c(=O)n(C)c(=O)n2C	–	inconclusive: 10 µM [rising, single point]
CC(C)c1cccc2nc3c(c([Si](C)(C)C(C)(C)C)c12)Cn1c-3cccc1=O	–	inconclusive: 12.6 µM [rising, partial curve]
Cn1c(NC(=O)C2c3ccccc3Oc3ccccc32)cc(=O)n(C)c1=O	inconclusive: -17%	–
CSc1cccc(NC(=O)Nc2ccccc2)c1	–	inconclusive: 0.398 µM [falling, single point]
COc1ccc(Oc2ncc3nc(-c4ccc(F)cc4)c(=O)n(CCC#N)c3n2)cc1	–	inconclusive: 12.6 µM [rising, partial curve]
COc1ccc(C)cc1S(=O)(=O)N(CC(N)=O)Cc1ccccc1	inconclusive: 10.1%	–
CCOc1cc(N2CCOCC2)c(OCC)cc1NC(=O)Cc1ccc(OC)c(OC)c1	inconclusive: 5.54%	–
Cn1c(=O)[nH]c(=O)c2c1nc(CN1CCOCC1)n2Cc1ccc(F)cc1	–	inconclusive: 7.94 µM [rising, partial curve]
O=C(CSC1=Nc2ccccc2C2=NC(CC(=O)NC3CCCCC3)C(=O)N12)NCc1ccco1 (centres undefined)	inconclusive: -11%	–
Cc1cc(C)n(-c2ccc(C(=O)NCc3ccc4c(c3)OCO4)cc2)n1	inactive	–
COc1cccc2c(=O)n(CC(=O)NC3CCCC3)ccc12	–	inconclusive: 10 µM [rising, single point]
COc1ccc(Cc2nnc(Nc3ccc(C)cc3C)[nH]c2=O)cc1	inconclusive: 42.7%	–
CCN(C(=O)COC(=O)c1cc(C)n(-c2ccc(F)cc2)c1C)C1CCS(=O)(=O)C1 (centres undefined)	–	inconclusive: 12.6 µM [rising, single point]
CC(=O)Nc1ccccc1C(=O)N1CC(C)OC(C)C1 (centres undefined)	inactive	–
Cn1c(C(=O)NCCN2CCc3ccccc3C2)cc2c(=O)[nH]c3ccccc3c21	–	inconclusive: 12.6 µM [rising, single point]
CC(=O)NCCc1nc2ccccc2[nH]1	inactive	–
O=C(O)c1cc(-c2ccco2)nc2ccc(Br)cc12	inactive	–
CCOC(=O)c1[nH]c2cc3c(cc2c1CCCN1C(=O)c2ccccc2C1=O)OCCO3	–	inconclusive: 12.6 µM [rising, partial curve]
CCCn1c(C)nc2c(NCCCN(CCO)CCO)nc(C)nc21	–	inconclusive: 10 µM [rising, partial curve]
CCOc1ncccc1C(=O)OCC(=O)c1ccc[nH]1	–	inconclusive: 15.8 µM [rising, single point]
Nc1ccc(S(=O)(=O)c2ccc(NC(=O)c3cccnc3)cc2)cc1	inactive: 3.08% [at 7.6 µM]	–
O=c1c(-c2ccc(Cl)cc2)nc2cnc(N3CCOCC3)nc2n1Cc1ccc(F)cc1	–	active: 6.31 µM
